{"source": "PubChem BioAssay AID588855", "about": "(National Center for Advancing Translational Sciences (NCATS), 2011)", "note": "Hit rate of the full screen: of about 410,000 compounds, about 5,000 (1.2%) were called active. The shares of active, inactive and inconclusive entries below differ from those in the screen. The call rests on the fitted dose curve; in most records, active means well fitted inhibition curve with a large enough effect; inconclusive means small, poorly fitted or top-dose-only effect; inactive means no such curve, though single readings can be large or run the other way. Potencies beside an inconclusive call are fits to weak or partial responses and may not hold up. Potency means the concentration at half of the fitted maximal effect; tags describe the fitted curve by direction and shape.", "data": [{"test": "qHTS for Inhibitors of TGF-b; further: nearly all actives have a fitted effect of over 65% in size", "details": "HepG2 CAGA-GFP TGF-b/SMAD3 reporter, GFP fluorescence, 18 h, TGF-beta stimulated, 500 pg/mL final; series mostly up to 46.1 µM", "how_it_was_run": "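Read-out: total well GFP (ex488/em500-530) summed from mean per-cell fluorescence. Cells: HEPG2 CAGA-GFP, 1% FBS DMEM, 18 h at 37 degrees C with 500 pg/mL final TGF-beta. Unstimulated wells served as the full-inhibition control; stimulated DMSO wells = 0%.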", "values": [{"smiles": "Cc1ccc2c(c1)N(CC(=O)NCc1cccc(Cl)c1)C(=O)c1cccnc1O2", "Potency": "inconclusive: 35.5 µM [inhibitor, single point]"}, {"smiles": "COC1CCCN(C(=O)c2ccc(OC3CCN(CCc4ccccc4)CC3)cc2)C1", "note": "(centres undefined)", "Potency": "inactive"}, {"smiles": "O=C(Nc1cccc(Cl)c1)Nc1ccccc1NS(=O)(=O)c1cccs1", "Potency": "inconclusive: 35.5 µM [inhibitor, single point]"}, {"smiles": "COc1ccccc1Cn1c(CNS(=O)(=O)c2c(C)cc(C)cc2C)nc2cccnc21", "Potency": "inconclusive: 20 µM [inhibitor, partial curve, poor fit]"}, {"smiles": "O=C(OCc1cn(-c2ccc(Cl)c(Cl)c2)nn1)c1ccccc1Cl", "Potency": "inconclusive: 35.5 µM [inhibitor, single point]"}, {"smiles": "Cc1ccc(C2=NN(Cc3nnc(-c4ccccc4)o3)C(=O)SC2)cc1", "Potency": "inconclusive: 0.316 µM [inhibitor, full curve, poor fit]"}, {"smiles": "O=C(c1ccc(Cl)c(S(=O)(=O)N2CCCCCC2)c1)N1CCOCC1", "Potency": "inconclusive: 6.31 µM [inhibitor, single point]"}, {"smiles": "CC(Sc1nc2ccccc2s1)C(=O)Nc1nnc(C(C)C)s1", "note": "(centres undefined)", "Potency": "inconclusive: 35.5 µM [inhibitor, single point]"}, {"smiles": "COc1ccccc1/C=C/C(=O)Nc1nc(N)n(-c2ccccc2)n1", "Potency": "inactive"}, {"smiles": "O=C(CN1CCN(Cc2ccc(Cl)cc2)CC1)N/N=C/c1c[nH]c2ccccc12", "Potency": "inconclusive: 12.6 µM [inhibitor, partial curve, poor fit]"}, {"smiles": "Nc1cc2c(cc1Br)[nH]c(=O)c1ccccc12", "Potency": "active: 10 µM"}, {"smiles": "CCOC(=O)c1sc(S(C)(=O)=O)c2c1CC(C)(C)C/C2=N/O", "Potency": "inconclusive: 35.5 µM [inhibitor, single point]"}, {"smiles": "COC(CN(C)C(C(=O)NC1CCCCC1)c1ccccc1)OC", "note": "(centres undefined)", "Potency": "inconclusive: 1.12 µM [inhibitor, full curve, poor fit]"}, {"smiles": "Cc1ccc(CN2C(=O)C3(SCC(=O)N3c3ccc(C)c(C)c3)c3ccccc32)cc1", "note": "(centres undefined)", "Potency": "inconclusive: 17.8 µM [inhibitor, single point]"}, {"smiles": "COc1ccc(NC(=O)C2CCN(S(=O)(=O)c3ccc4c(c3)NC(=O)C(C)S4)CC2)cc1", "note": "(centres undefined)", "Potency": "inconclusive: 15.8 µM [inhibitor, single point]"}, {"smiles": "CCOC(=O)Cn1nc(N2CCN(c3ccc(F)cc3)CC2)ccc1=O", "Potency": "inconclusive: 12.6 µM [inhibitor, single point]"}, {"smiles": "CC(C)Oc1ccc(C(=O)N/N=C/c2ccc(-c3ccc(S(=O)(=O)Nc4ncccn4)cc3)o2)cc1", "Potency": "inconclusive: 0.708 µM [inhibitor, partial curve, poor fit]"}, {"smiles": "O=C(NCCNc1ccc(Cl)cc1[N+](=O)[O-])c1ccccc1F", "Potency": "inconclusive: 35.5 µM [inhibitor, single point]"}, {"smiles": "COc1ccc(C=C2SC(=S)N(CCCN3CCOCC3)C2=O)c(OC)c1", "Potency": "inconclusive: 11.2 µM [inhibitor, partial curve, poor fit]"}, {"smiles": "CCOc1cc(N2CCOCC2)c(OCC)cc1NC(=O)CSc1ncccn1", "Potency": "inconclusive: 0.355 µM [inhibitor, full curve]"}, {"smiles": "O=C(Nc1ccc(COc2ccccc2)cc1)Nc1cccc(C(=O)O)c1", "Potency": "inactive"}, {"smiles": "O=C(CN1CCCCCC1)N1c2ccccc2Sc2ccc(C(F)(F)F)cc21", "Potency": "inconclusive: 35.5 µM [inhibitor, single point]"}, {"smiles": "Cc1ccc(C2=N/C(=C\\c3cccs3)C(=O)N2Nc2ccccc2)cc1", "Potency": "inconclusive: 20 µM [inhibitor, single point]"}, {"smiles": "O=C(NC(=S)Nc1cccc([N+](=O)[O-])c1)c1ccccc1", "Potency": "inconclusive: 2 µM [inhibitor, full curve, poor fit]"}, {"smiles": "CCc1cc(C(=O)COc2ccc(F)cc2)c(O)cc1O", "Potency": "inconclusive: 35.5 µM [inhibitor, single point]"}, {"smiles": "CN(C)c1ccc(NC(=O)c2ccc(Cn3cc([N+](=O)[O-])cn3)cc2)cc1", "Potency": "inactive"}, {"smiles": "O=C(NC(=S)Nc1cccc(C(F)(F)F)c1)c1ccc2nonc2c1", "Potency": "inconclusive: 25.1 µM [inhibitor, single point]"}, {"smiles": "Cc1ccc(S(=O)(=O)N2CCN(C(=O)COC(=O)C3CCC3)CC2)cc1", "Potency": "inactive"}, {"smiles": "Cc1nn(-c2ccccc2)c(Cl)c1C(=O)N1CCN(c2ncnc3c2cnn3-c2ccccc2)CC1", "Potency": "inconclusive: 35.5 µM [inhibitor, single point]"}, {"smiles": "Cc1cc(Nc2cccc(Cl)c2C)n2nc(Cc3ccccc3)nc2n1", "Potency": "inconclusive: 14.1 µM [inhibitor, partial curve, poor fit]"}, {"smiles": "Cc1ccc(NC(=O)CCS(=O)(=O)c2ccc3c(c2)NC(=O)C(C)S3)cc1Cl", "note": "(centres undefined)", "Potency": "inconclusive: 6.31 µM [inhibitor, partial curve]"}, {"smiles": "CN(C(=O)COC(=O)c1ccccc1Nc1ccccc1)c1c(N)n(Cc2ccccc2)c(=O)[nH]c1=O", "Potency": "inconclusive: 35.5 µM [inhibitor, single point]"}, {"smiles": "CCOc1ccccc1NC(=O)Cn1c(=O)n(Cc2ccccc2)c(=O)c2c(C)c(C(=O)N(C)C)sc21", "Potency": "inactive"}, {"smiles": "Oc1cccc2ccc[n+](CC(O)CBr)c12", "note": "(centres undefined)", "Potency": "inactive"}, {"smiles": "O=C(Nc1ccc2nc(SCC(=O)N3CCCC3)sc2c1)c1ccc(F)cc1", "Potency": "inactive"}, {"smiles": "O=C(CSCc1ccccc1)N/N=C/c1ccccc1OCc1ccccc1", "Potency": "inconclusive: 8.91 µM [inhibitor, partial curve, poor fit]"}, {"smiles": "Cc1[nH]c2ccccc2c1Cc1nnc(SCC(N)=O)o1", "Potency": "inconclusive: 0.112 µM [inhibitor, full curve, poor fit]"}, {"smiles": "Cc1cc2nc(CCN3CCOCC3)n(S(=O)(=O)c3ccc(C(C)(C)C)cc3)c2cc1C", "Potency": "inactive"}, {"smiles": "CC(C)c1ccc(NC(=O)C2CCCCN2S(=O)(=O)c2ccccc2)cc1", "note": "(centres undefined)", "Potency": "inconclusive: 15.8 µM [inhibitor, single point]"}, {"smiles": "CCc1ccc(NC(=S)/N=C(\\N)Nc2nc(C)c3cc(CC)ccc3n2)cc1", "Potency": "inconclusive: 6.31 µM [inhibitor, partial curve, poor fit]"}, {"smiles": "c1ccc(OCCNc2ccn3nc(-c4ccccc4)cc3n2)cc1", "Potency": "inconclusive: 10 µM [inhibitor, partial curve]"}, {"smiles": "COc1ccccc1Oc1coc2cc(OC(=O)N3CCOCC3)ccc2c1=O", "Potency": "inactive"}, {"smiles": "Cc1cc(C)c2c(=O)cc(C(=O)Nc3ccc(S(=O)(=O)Nc4nc(C)cc(C)n4)cc3)oc2c1", "Potency": "inactive"}, {"smiles": "CN(C)c1ccc(CN(C(=O)c2ccc(Cl)c([N+](=O)[O-])c2)C2CCS(=O)(=O)C2)cc1", "note": "(centres undefined)", "Potency": "inactive"}, {"smiles": "CCN(CC)CCCN=C1N[C@@H](c2cccc(C(F)(F)F)c2)C(C(=O)OC)=C(C)N1CC", "Potency": "inconclusive: 35.5 µM [inhibitor, single point]"}, {"smiles": "CCCCC(=O)NC(=S)Nc1cccc(NC(=O)c2ccco2)c1", "Potency": "inconclusive: 3.98 µM [inhibitor, full curve]"}, {"smiles": "COc1ccc(CCn2c(=N)c(S(=O)(=O)c3ccc(Cl)cc3)cc3c(=O)n4ccccc4nc32)cc1", "Potency": "inactive"}, {"smiles": "COc1cccc(/C=N/NC(=O)CC(C)O)c1OC/C=C/c1ccccc1", "note": "(centres undefined)", "Potency": "inactive"}, {"smiles": "Cc1nc(NCc2ccco2)c2c(C)c(C)sc2n1", "Potency": "active: 7.94 µM"}, {"smiles": "NC(=O)c1nsc(C(=O)N(c2ccc(F)cc2)C(C(=O)NCC2CCCO2)c2c[nH]c3ccccc23)c1N", "note": "(centres undefined)", "Potency": "inactive"}, {"smiles": "CCC1Nc2ncnc(N3CCN(c4ccccc4)CC3)c2N(Cc2ccccc2)C1=O", "note": "(centres undefined)", "Potency": "inconclusive: 35.5 µM [inhibitor, single point]"}, {"smiles": "O=C(CSc1ccc(-c2ccco2)nn1)Nc1cccc(F)c1", "Potency": "inconclusive: 2.82 µM [inhibitor, partial curve]"}, {"smiles": "Cc1ccc(C(=O)OCC(=O)Nc2ccc(N3CCOCC3)cc2)cc1", "Potency": "inconclusive: 1.41 µM [inhibitor, full curve, poor fit]"}, {"smiles": "COc1ccc(S(=O)(=O)Nc2ccc3c(c2)N(C(C)=O)CCC3)cc1", "Potency": "inactive"}, {"smiles": "Cc1ccccc1NC(=O)c1nn(C)c2c1CS(=O)(=O)c1ccccc1-2", "Potency": "inconclusive: 2.24 µM [inhibitor, partial curve]"}, {"smiles": "Cc1ccccc1C1NC(c2ccccc2C)C(C)C(=O)C1C", "note": "(centres undefined)", "Potency": "inconclusive: 12.6 µM [inhibitor, single point]"}, {"smiles": "Cc1nc2sc(C(=O)NCc3ccc(Cl)cc3)c(NC(=O)c3ccccc3)c2c(C)c1C", "Potency": "inconclusive: 2.51 µM [inhibitor, full curve, poor fit]"}, {"smiles": "O=C1N(c2ccccc2C(F)(F)F)OC1(Cc1ccccc1)c1ccccc1", "note": "(centres undefined)", "Potency": "inconclusive: 12.6 µM [inhibitor, single point]"}, {"smiles": "COC(=O)C(NC(=O)c1ccc(F)cc1)(Nc1ncc(S(=O)(=O)c2ccc([N+](=O)[O-])cc2)s1)C(F)(F)F", "note": "(centres undefined)", "Potency": "inconclusive: 35.5 µM [inhibitor, single point]"}, {"smiles": "COc1ccc(C(C[N+](=O)[O-])n2nc(C)cc2C)cc1", "note": "(centres undefined)", "Potency": "inconclusive: 15.8 µM [inhibitor, partial curve, poor fit]"}, {"smiles": "CCOC(=O)c1ccc(NC(=O)CN2C(=O)c3cccnc3Oc3ccc(Cl)cc32)cc1", "Potency": "inconclusive: 12.6 µM [inhibitor, partial curve]"}, {"smiles": "Cc1ccc(SCC(=O)O/N=C(\\N)c2ccc([N+](=O)[O-])cc2)cc1", "Potency": "inconclusive: 20 µM [inhibitor, partial curve, poor fit]"}, {"smiles": "OC(CNCCNc1ncccc1C(F)(F)F)Cn1ccc2ccccc21", "note": "(centres undefined)", "Potency": "inconclusive: 22.4 µM [inhibitor, single point]"}, {"smiles": "COc1cccc(=O)c2c(C)n(-c3cc(C)cc(C)c3)c(C)c12", "Potency": "inconclusive: 0.708 µM [inhibitor, partial curve, poor fit]"}]}]}
